Results reported in PMC9562873.
These are yes or no findings as the source states them, for the method shown. Binding seen in cells or lysates may run through a third protein. Some results given as binding are weak or reduced against the parent protein; the word gives no strength. For some assays here: Tags and fused reporters may be left off the sequences shown.

Assays:
[1] = target: T1, Epitope-tagged endogenous PGC-1β (Peroxisome Proliferator-Activated Receptor Gamma, Coactivator 1 Beta) with C-terminal twin Strep2 and triple FLAG tags (human (endogenous in HCT116)) (UniProt Q86YN6); assay: co-IP; HCT116 cells with epitope-tagged endogenous PGC-1β lysed in RIPA buffer (1% Triton X-100); precipitated overnight at 4 °C on magnetic FLAG beads (eluted with 3X-FLAG peptide) or on MagStrep type3 XT beads (eluted with 50 mM biotin); eluates immunoblotted for PGC-1β and ERRα
T1 sequence: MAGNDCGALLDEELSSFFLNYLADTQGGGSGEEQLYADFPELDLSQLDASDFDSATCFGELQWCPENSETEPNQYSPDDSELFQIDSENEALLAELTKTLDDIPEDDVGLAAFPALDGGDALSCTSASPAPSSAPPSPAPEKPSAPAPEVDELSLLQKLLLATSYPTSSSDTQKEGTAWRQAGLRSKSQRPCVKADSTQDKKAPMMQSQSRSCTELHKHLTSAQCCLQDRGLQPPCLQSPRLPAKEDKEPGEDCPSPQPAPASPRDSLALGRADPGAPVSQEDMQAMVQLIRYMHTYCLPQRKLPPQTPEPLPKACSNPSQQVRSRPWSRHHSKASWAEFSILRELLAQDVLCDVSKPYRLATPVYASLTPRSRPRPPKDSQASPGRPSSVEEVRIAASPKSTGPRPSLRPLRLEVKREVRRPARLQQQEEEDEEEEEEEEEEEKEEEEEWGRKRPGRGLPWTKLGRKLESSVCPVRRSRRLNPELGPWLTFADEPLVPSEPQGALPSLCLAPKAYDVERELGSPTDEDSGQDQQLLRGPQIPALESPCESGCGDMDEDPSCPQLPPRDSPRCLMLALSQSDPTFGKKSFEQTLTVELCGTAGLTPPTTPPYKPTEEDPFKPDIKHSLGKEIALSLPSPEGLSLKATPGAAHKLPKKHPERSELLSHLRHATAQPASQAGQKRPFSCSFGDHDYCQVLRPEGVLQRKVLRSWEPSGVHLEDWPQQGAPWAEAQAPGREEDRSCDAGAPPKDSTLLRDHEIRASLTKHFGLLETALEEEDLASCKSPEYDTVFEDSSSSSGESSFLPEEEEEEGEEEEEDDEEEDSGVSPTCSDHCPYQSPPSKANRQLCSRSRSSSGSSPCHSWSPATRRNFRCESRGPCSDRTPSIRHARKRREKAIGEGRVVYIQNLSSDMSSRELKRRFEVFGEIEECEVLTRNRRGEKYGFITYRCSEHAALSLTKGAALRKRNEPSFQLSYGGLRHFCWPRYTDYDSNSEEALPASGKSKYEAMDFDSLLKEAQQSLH

[2] = target: T2, PGC-1β LAALL mutant (LRELL → LAALL in motif #3) (human) (UniProt Q86YN6); assay: co-IP; HCT116 (and T84 for wild type and AREAA) cells expressing N-terminally 3xFLAG twin Strep2 tagged PGC-1β, wild type or mutant, from the AAVS1 locus; precipitated by the FLAG or the Strep2 epitopes in separate experiments, eluted with triple FLAG peptide or 50 mM biotin; eluates immunoblotted for PGC-1β and ERRα
T2 sequence: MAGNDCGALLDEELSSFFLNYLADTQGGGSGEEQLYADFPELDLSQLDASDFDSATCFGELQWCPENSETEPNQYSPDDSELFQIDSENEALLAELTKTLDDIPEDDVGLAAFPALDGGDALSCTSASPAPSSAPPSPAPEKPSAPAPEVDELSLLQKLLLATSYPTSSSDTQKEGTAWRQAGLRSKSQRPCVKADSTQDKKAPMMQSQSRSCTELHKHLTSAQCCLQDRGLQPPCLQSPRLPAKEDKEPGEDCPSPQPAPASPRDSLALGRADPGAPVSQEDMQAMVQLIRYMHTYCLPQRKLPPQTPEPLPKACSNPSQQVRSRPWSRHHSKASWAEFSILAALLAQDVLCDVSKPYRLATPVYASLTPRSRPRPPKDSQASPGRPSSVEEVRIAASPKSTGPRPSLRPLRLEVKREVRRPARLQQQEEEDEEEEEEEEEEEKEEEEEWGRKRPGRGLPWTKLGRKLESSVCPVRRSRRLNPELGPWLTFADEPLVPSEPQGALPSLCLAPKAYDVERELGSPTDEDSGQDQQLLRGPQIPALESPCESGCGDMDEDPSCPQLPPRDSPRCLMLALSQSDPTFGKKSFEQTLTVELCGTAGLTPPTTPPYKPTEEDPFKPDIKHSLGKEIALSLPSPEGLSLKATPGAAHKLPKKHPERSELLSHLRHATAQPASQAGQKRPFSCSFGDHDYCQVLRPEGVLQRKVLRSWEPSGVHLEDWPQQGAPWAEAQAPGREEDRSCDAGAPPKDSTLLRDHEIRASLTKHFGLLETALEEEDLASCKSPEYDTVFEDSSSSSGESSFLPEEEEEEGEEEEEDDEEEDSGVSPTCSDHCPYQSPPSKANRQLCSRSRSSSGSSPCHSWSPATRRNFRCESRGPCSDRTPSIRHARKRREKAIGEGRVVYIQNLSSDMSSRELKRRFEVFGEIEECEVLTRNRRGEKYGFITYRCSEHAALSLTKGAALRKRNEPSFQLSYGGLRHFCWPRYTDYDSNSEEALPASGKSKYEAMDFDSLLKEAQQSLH

[3] = target: T3, PGC-1β triple mutant, Only LxxLL motif #2 (motifs 1, 3 and 4 inactivated) (human) (UniProt Q86YN6); assay: as above
T3 sequence: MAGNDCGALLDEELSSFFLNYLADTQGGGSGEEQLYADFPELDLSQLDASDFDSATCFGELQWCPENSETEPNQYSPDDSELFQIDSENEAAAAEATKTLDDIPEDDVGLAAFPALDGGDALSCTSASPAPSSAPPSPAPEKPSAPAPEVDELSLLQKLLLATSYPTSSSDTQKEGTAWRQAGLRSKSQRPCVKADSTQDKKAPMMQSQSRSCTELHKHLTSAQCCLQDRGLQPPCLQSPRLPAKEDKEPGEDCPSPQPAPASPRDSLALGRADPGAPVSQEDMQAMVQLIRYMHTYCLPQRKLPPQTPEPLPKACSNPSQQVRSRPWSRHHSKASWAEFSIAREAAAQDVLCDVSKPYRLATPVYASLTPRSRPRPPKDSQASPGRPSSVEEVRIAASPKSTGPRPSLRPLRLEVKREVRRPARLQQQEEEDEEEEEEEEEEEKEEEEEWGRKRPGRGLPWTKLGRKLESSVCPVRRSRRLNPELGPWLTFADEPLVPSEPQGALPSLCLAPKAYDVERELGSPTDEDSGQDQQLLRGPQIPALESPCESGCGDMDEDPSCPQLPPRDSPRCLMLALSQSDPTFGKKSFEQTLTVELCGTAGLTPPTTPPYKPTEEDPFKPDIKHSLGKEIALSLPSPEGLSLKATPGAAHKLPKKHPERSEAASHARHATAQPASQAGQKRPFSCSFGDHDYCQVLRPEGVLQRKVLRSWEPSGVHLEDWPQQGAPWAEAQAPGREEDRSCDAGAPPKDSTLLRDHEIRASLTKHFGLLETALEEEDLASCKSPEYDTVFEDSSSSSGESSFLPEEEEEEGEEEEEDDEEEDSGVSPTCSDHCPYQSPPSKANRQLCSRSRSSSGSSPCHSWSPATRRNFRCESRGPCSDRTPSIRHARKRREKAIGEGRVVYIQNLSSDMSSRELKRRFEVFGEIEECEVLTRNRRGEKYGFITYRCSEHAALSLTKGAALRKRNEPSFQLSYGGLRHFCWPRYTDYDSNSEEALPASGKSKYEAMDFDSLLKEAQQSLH

[4] = target: T4, PGC-1β AREAA mutant (LRELL → AREAA in motif #3) (human) (UniProt Q86YN6); assay: as above
T4 sequence: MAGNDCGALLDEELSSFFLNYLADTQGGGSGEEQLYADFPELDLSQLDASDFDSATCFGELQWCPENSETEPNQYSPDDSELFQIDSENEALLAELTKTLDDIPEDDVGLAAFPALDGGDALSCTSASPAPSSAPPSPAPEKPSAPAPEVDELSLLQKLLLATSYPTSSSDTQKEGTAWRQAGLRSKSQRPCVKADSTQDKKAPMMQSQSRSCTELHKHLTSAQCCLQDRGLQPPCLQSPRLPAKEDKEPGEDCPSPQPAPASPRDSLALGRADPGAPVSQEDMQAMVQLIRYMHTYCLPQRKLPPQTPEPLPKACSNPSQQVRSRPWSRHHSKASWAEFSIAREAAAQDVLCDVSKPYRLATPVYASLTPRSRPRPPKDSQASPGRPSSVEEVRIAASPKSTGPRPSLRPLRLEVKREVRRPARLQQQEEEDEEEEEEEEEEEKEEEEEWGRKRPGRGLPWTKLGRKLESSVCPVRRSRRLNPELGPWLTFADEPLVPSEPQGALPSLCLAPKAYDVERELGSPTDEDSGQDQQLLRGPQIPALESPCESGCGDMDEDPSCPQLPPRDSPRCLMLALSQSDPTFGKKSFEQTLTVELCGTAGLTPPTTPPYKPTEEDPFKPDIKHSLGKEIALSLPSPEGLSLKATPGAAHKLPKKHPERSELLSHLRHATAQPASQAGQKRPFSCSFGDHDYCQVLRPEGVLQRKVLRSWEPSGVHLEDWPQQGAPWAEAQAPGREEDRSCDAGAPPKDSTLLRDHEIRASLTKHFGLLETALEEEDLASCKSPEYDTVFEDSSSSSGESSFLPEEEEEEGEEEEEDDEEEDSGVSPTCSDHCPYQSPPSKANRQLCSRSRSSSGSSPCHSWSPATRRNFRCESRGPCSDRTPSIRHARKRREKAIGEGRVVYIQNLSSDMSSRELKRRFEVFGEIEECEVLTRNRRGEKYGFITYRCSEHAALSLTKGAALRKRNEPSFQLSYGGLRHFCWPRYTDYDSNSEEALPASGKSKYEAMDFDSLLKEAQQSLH

[5] = target: T5, Wild type dual epitope tagged PGC-1β (N-terminal triple FLAG and twin Strep2), doxycycline inducible (human) (UniProt Q86YN6); assay: as above
T5 sequence: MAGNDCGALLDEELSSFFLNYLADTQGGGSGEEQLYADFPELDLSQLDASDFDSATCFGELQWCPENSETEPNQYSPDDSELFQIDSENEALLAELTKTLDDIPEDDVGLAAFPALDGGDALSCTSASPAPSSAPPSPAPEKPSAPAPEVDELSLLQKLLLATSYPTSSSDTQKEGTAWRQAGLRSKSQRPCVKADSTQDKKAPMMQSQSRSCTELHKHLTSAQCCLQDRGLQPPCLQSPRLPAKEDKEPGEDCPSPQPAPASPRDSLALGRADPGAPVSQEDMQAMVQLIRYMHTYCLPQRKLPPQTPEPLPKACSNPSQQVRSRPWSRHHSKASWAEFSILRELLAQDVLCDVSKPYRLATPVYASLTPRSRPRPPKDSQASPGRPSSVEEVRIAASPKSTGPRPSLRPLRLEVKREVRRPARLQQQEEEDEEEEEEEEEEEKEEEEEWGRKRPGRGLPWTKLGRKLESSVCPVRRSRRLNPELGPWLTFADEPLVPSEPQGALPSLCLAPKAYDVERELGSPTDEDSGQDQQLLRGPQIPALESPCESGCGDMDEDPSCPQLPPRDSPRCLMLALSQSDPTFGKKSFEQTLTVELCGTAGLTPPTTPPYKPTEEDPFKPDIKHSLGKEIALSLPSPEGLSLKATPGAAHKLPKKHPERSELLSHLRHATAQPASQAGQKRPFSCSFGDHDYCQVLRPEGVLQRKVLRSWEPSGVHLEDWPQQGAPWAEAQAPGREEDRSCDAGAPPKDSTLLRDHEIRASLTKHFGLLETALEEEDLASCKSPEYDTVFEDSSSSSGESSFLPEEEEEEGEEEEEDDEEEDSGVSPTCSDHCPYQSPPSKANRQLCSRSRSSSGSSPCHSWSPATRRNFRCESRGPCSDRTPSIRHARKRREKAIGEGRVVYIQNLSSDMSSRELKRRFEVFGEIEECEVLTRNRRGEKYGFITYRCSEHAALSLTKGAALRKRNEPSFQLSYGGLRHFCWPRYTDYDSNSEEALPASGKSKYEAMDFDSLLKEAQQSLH

B1: Estrogen-Related Receptor Alpha (ERRα) (protein, UniProt P11474 1-423)
chain: MSSQVVGIEPLYIKAEPASPDSPKGSSETETEPPVALAPGPAPTRCLPGHKEEEDGEGAGPGEQGGGKLVLSSLPKRLCLVCGDVASGYHYGVASCEACKAFFKRTIQGSIEYSCPASNECEITKRRRKACQACRFTKCLRVGMLKEGVRLDRVRGGRQKYKRRPEVDPLPFPGPFPAGPLAVAGGPRKTAAPVNALVSHLLVVEPEKLYAMPDPAGPDGHLPAVATLCDLFDREIVVTISWAKSIPGFSSLSLSDQMSVLQSVWMEVLVLGVAQRSLPLQDELAFAEDLVLDEEGARAAGLGELGAALLQLVRRLQALRLEREEYVLLKALALANSDSVHIEDAEAVEQLREALHEALLEYEAGRAGPGGGAERRRAGRLLLTLPLLRQTAGKVLAHFYGVKLEGKVPMHKLFLEMLEAMMD
For B1, the binding [1] was “binds”, the binding [2] was “binds” and the binding [3] was “no binding”. For the same binder, the binding [4] was “no binding” and the binding [5] was “binds”.
